The supplement of paper PMC3334620
Over roughly 33,000 sequences, “E-score (-0.5 to 0.5)” has its median near -0.032; the highest 2% begin near 0.36. The list shows a part of the results.

Target: T1, Sko1 (UniProt Q02100)
T1 sequence: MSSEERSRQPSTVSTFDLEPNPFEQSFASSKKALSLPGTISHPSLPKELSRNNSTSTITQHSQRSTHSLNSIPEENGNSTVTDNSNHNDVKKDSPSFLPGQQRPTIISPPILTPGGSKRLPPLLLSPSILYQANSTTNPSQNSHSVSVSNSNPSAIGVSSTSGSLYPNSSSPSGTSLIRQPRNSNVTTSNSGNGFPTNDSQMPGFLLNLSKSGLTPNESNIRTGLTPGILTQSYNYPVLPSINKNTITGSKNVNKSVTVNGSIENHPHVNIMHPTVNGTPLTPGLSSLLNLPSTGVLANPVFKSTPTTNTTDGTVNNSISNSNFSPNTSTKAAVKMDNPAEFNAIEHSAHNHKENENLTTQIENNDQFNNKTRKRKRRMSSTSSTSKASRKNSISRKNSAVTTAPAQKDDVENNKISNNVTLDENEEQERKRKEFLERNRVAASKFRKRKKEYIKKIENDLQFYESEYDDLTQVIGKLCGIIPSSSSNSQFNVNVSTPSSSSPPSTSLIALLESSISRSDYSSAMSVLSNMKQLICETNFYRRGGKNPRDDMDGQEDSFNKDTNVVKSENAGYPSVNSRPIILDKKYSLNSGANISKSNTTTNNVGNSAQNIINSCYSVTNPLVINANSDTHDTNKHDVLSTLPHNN
Assay: PBM E-score (8-mer binding enrichment) (E-score (-0.5 to 0.5)); higher = stronger / more preferred TF binding; most listed sequences are background and not binding sites
Conditions: protein concentration: 200 nM; construct: GST-full length
Outline: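 E-scores (a modified Wilcoxon-Mann-Whitney statistic) were assigned by the Universal PBM Analysis Suite to every ungapped eight-base word pooled with its reverse complement. The input came from universal all-10-mer Agilent arrays made double-stranded by primer extension and probed with GST-tagged yeast transcription factors at about 100-200 nM. Fluorescent anti-GST detected bound protein, and masliner normalised the scans.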

Sequence	PBM E-score
AAACGCCA	0.12
CTTGTGAA	-0.0605
AACGTCAA	0.424
CGTAGTCC	0.0302
AAGGTGCA	-0.0402
GATTCATA	0.0517
CAAAGAGG	-0.214
CTAGGAGC	-0.252
CAATAGCC	-0.095
AATCGACT	-0.114
CCTAGCAA	-0.128
CCTCGCTC	-0.0865
TGGTTCAA	0.0525
ACGTGACT	0.324
GACACGAC	0.0945
CGACCGCA	-0.266
AAGATGAT	0.277
AATGACTA	0.0941
AGCTGTAG	-0.169
ATGTGGGG	-0.275
ACATTGGT	-0.106
GCCCCCAA	-0.188

Sequence	PBM E-score
GGTAGAAC	-0.13
GAGGTGGC	-0.225
ACTATAAG	0.0577
TGGATTAA	0.0521
CGCTGACA	0.0388
GGCTTGCA	-0.0735
CTCCCGTA	-0.148
AGCCGAAA	-0.0837
AATTTACC	0.00322
GTGCTAAC	0.0195
CCACAATC	-0.0986
ATCATATA	0.244
CTCCTATA	-0.051
GCACTTAC	0.149
TAAGGACA	0.0276
GAACTGAA	0.0186
AGTCCGGC	-0.0532
CGTGCCTC	0.136
ACGTCTGA	0.339
CAGGAAGA	-0.156
ACATAGAG	0.0283
ACGGACCA	0.03

Sequence	PBM E-score
ACAATGCT	-0.0168
CTGACACC	-0.157
CAGGGTAG	-0.161
AGTCTACG	0.085
GGTCCACC	-0.367
AGCAACAC	0.0523
GTCCAGAC	-0.278
AGCTATCA	0.0219
GAAAGAAA	0.126
GCTACTGA	0.00969
CCTGCAAA	-0.179
CAGTGACC	-0.18
GTAGGGTA	0.1
ACTCCCGA	-0.223
AACGGTAA	-0.0291
GTAAGCAC	0.0204
TACAAGAA	0.144
CTAGTCAC	0.0572
CCGGGCTA	-0.366
CACAGGTG	-0.0389
CTGCCCAA	-0.169
GTTGACAA	0.00878

Sequence	PBM E-score
ATACGTGC	0.406
AACTACCC	-0.145
AAGGTAGA	0.0344
AGATTTAA	0.0862
CGTCCCAC	0.186
AATCGTAG	0.257
ACACGCGC	0.0966
CTAAGGCA	-0.0501
GAGTTGCA	-0.0549
CTCGAATA	0.0293
CCGCACAA	-0.203
AAAGAATT	0.138
ATGCACCG	-0.187
AAGTGGTC	-0.0401
CTGCCATC	-0.14
GAGGTACC	-0.217
ACCCGCTA	-0.176
CGACACCC	-0.0454
AGAAGTAA	0.179
ATTCTGTA	-0.0162
